Measurements as given in the supplement of paper PMC3334620.
Over roughly 33,000 sequences, “E-score (-0.5 to 0.5)” has its median near -0.01; the highest 2% begin near 0.26. Some of the results follow.

Biological target: Ste12 (UniProt P13574)
Assay: PBM E-score (8-mer binding enrichment) (E-score (-0.5 to 0.5)); higher = stronger / more preferred TF binding; most listed sequences are background and not binding sites
Conditions: protein concentration: 200 nM; construct: GST-DNA-binding domain
Summary of the method: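 Universal all-10-mer Agilent arrays, fresh or stripped once, were converted to double-stranded form by primer extension. GST-tagged yeast transcription factors from PURExpress in vitro transcription/translation, full-length or DNA-binding domain only, were applied at about 100-200 nM and detected with fluorescent anti-GST. After masliner normalisation, the Universal PBM Analysis Suite scored each ungapped eight-base word together with its reverse complement by E-score.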

Point of comparison: GCCCACCC, “PBM E-score” value 0.344. Against it:
- ACAGACCA — lower, 0.0248
- CCGGAGAC — lower, -0.00334
- ACGGATCT — lower, -0.183
- GTATTCGA — lower, 0.0722
- GTGGGCGA — lower, -0.0639
- CTAGCCAC — lower, -0.321
- CCATGAAA — lower, 0.252
- GCGTTGTA — lower, 0.00397
- AGCGGAGA — lower, 0.0881
- ACAAGGGC — lower, -0.168
- AGTGTAAG — lower, 0.228
- CCCTAAGG — lower, -0.222
- CAGGGCGC — lower, 0.0408
- CGCGGAAC — lower, 0.104
- GGCGACAA — lower, -0.0913
- ACAGCCAA — lower, 0.00901
- TCAGTCAA — lower, -0.0289
- GATTGCGC — lower, 0.123
- CCCGTGAC — lower, -0.012
- AGGCGACG — lower, 0.0249
- GGGGACCC — lower, -0.163
- AATCTCCT — lower, -0.0183
- CATAGCTA — lower, -0.189
- ATGGAGAG — lower, -0.00195
- CGAGGCCA — lower, -0.0655
- GTCGGATA — lower, -0.0399
- ACTATATC — lower, 0.215
- ATCGTGTG — lower, -0.0771
- CTGTTGAA — lower, 0.258
- AGGTTGGA — lower, 0.114
- CTTTCCTA — lower, -0.0026
- ATTTCACC — lower, 0.0498
- CAACGTTC — lower, 0.174
- TACCCCGA — lower, 0.143
- GTACAAAA — lower, 0.0142
- ACTCAAGG — lower, -0.176
- AGAAGTAG — lower, -0.0868
- ATATCCCA — lower, 0.13
- CAGTTGTA — lower, -0.0352
- CGTCAATC — lower, 0.0356
- ACTTTAAC — lower, 0.162
- ACTGGTTA — lower, 0.0295
- ACAGGCCA — lower, -0.117
- ATTTTGGC — lower, 0.191
- ATATTCAT — lower, 0.227
- CATACCGG — lower, -0.0527
- AGCGGTTA — lower, 0.0437
- AGGGAGCG — lower, -0.0688
- ATGCCTTC — lower, -0.311
- CTGGTGTA — lower, -0.102
- CCATCTCG — lower, -0.131
- ACGATTGG — lower, -0.0558
- ATGTAAAA — higher, 0.349
- CCTTTCCC — lower, -0.0368
- ATCAAGGA — lower, -0.125
- ACCGACCA — lower, -0.00614
- AAAGATCA — lower, -0.00317
- ACACCTAC — lower, 0.0471
- ACCGTCTC — lower, -0.0593
- CCGTTGAC — lower, -0.0834
- GATTTTAA — lower, 0.201
- ACAACAGG — lower, -0.127
- CTAAAAAA — lower, 0.278
- ATGAGTGC — lower, 0.00589
- ATGCAAAT — lower, -0.0256
- ATTCATAC — lower, 0.219
- AACCATCA — lower, -0.0543
- AGAGAAGC — lower, 0.00128
- GGCTGGCA — lower, -0.293
- GCTCTACA — lower, 0.0189
- AGTACTAC — lower, 0.0281
- CAAGGTAA — lower, 0.056
- ATGGATTG — lower, 0.0445
- CTCTTATC — lower, 0.0526
- CTTATCAA — lower, 0.109
- AAAATCAG — lower, 0.118
- AATAAAGA — lower, 0.211
- AATGCATA — lower, -0.0821
- ACCAGAGG — lower, -0.0796
- ACAATAGG — lower, 0.0381
- ATAGGCAC — lower, -0.245
- AGTTAGCA — lower, -0.107
- ACTATACG — lower, -0.113
- AGCGGTAA — lower, 0.108
- ATAGTCTG — lower, -0.101
- CGTATCTC — lower, 0.053
- AGCCCGAT — lower, 0.14
- TGTCCCAA — lower, -0.0924
- ATCGTGGG — lower, 0.128
- TCGTCTAA — lower, -0.0513
- CCGGGATC — lower, 0.148
- GACTCCTC — lower, -0.101
- AGAGGCCA — lower, -0.072
- AGTGCGAG — lower, -0.0922
- ACTTCAAG — lower, 0.066
- ACTGTCTA — lower, -0.165
- ACGTATGG — lower, -0.00236
- GAGCGAGC — lower, -0.00859
- GCTTCGCA — lower, -0.235
- AACAGGGG — lower, 0.0794
- AGGGCAAG — lower, 0.172
- ATACGATG — lower, -0.13
- GCAAAGAA — lower, 0.225
- AAAAATTT — lower, 0.138
- ACGAAAAT — lower, 0.142
- ATGAACAC — lower, 0.136
- GTGAAGGA — lower, -0.00656
- CAAACCGA — lower, 0.0295
- CACAGCCC — lower, -0.205
- ACATAGTC — lower, -0.114
- GAGTCGAC — lower, 0.0372
- AGAAAGTC — lower, 0.0154
- ATAAATCG — lower, 0.0695
- AGGCTTGG — lower, -0.0545
- AACCCGCA — lower, 0.139
- CCATGAGC — lower, -0.323
- CTCCGAAC — lower, -0.216
- ATGTGTTG — lower, 0.132
- GGTCAGAA — lower, 0.0496
- CCGGAAAC — lower, 0.0586
- GGAATTAA — lower, 0.229
- CATACAAG — lower, -0.113
- ACCCTGCT — lower, -0.216
- CGTCGACA — lower, 0.0468
- GACAAGCC — lower, -0.108
- ACTCTCAG — lower, 0.0382
- CTCCCAAC — lower, 0.0957
- ACTCAGCA — lower, -0.191
- CTCGTCGC — lower, -0.0358
- AGGTCAAA — lower, 0.0538
- GACTGGGA — lower, 0.0394
- ATAGCGAG — lower, 0.0492
- GACAGGGC — lower, -0.169
- AGAACACT — lower, 0.0209
- GCGTCATA — lower, 0.143
- CTACCAAA — lower, 0.0171
- TCTCCAGA — lower, -0.249
- AAGAGTGA — lower, -0.0133
- CGAGTGAG — lower, -0.188
- GTCTTCGA — lower, -0.221
- ACCTGTGC — lower, -0.156
- GGTTGCTA — lower, -0.112
- ATGGCCAT — lower, -0.189
- AATCGCCT — lower, 0.114
- ATACCGTA — lower, 0.0561
- GGGTCTAA — lower, 0.122
- GTCGGGTA — lower, 0.0975
- CTTAGATA — lower, 0.133
- CTGGGGTA — lower, -0.145
- CTGTTCGC — lower, 0.13
- GTTACTAA — lower, 0.0719
- CCGTACAG — lower, -0.21
- AAAATCGC — lower, 0.151
- CGGGGAAC — lower, -0.0249
- GGCCTACA — lower, -0.137
- GATGGGGC — lower, 0.0325
- ACCCGCGC — lower, 0.25
- CGACCTAC — lower, -0.151
- CCAAACTC — lower, 0.184
- AACGCTCG — lower, 0.032
- CTCTCCCA — lower, -0.0499
- GTTGGAGA — lower, 0.19
- CCGGATAA — lower, 0.0216
- GGGTTCAA — lower, -0.0051
- ATTTTTCG — lower, 0.294
- ATTTACTA — lower, 0.169
- GTATATGA — lower, 0.0568
- ACGGCAGG — lower, -0.162
- ACCAAGTA — lower, 0.145
- TCCTCTCA — lower, -0.0603
- GATGGAAA — lower, 0.0433
